For 87 compounds, GI50 and TGI results are on record in PubChem BioAssay (NCI).

Several values for one entry are separate records, joined by “and”; a condition that tells them apart may be missing. Identical values can stand only once.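 In this assay, cells in 96-well plates receive the compound at five concentrations for 48 hours. Endpoints are linearly interpolated between the surrounding concentrations. Abbreviation: GI50, concentration required for 50% inhibition of growth. TGI: total growth inhibition.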

In this assay the test system is NCI-H322M lung. In words: NCI-60 cell line screen, 48 h.
As to `Clc1ccc(Nc2nnc(COc3ccccc3)c3ccccc23)cc1`, the GI50 is 1.56 µM and the TGI was 8.2 µM. `CN1C(=O)CC(CC(=O)C2CCCCC2=O)CC1=O` (centres undefined): the TGI is > 100 µM. Same read-out and setting: to `Cc1ccccc1C1SCc2nc3ccccc3n21` (centres undefined) belongs > 100 µM; to `O=c1oc2c(Cl)cc(Cl)cc2cc1-c1cn2c(n1)sc1ccccc12`, > 100 µM; to `OC[C@H](O)[C@@H](OCc1ccccc1)[C@H](NCc1ccccc1)c1cccs1`, > 100 µM. On to `c1ccc2c(c1)CCCc1nnc3nc4ccccc4n3c1-2`, for which the GI50 is 5.92 µM and the TGI was > 100 µM.

With `N#Cc1cc([N+](=O)[O-])ccc1NC(=O)C(=O)Nn1c(=S)[nH]c2ccccc2c1=O`, the TGI is > 100 µM. The same measure, in the same setting: in the case of `OC[C@@H](O)[C@H](O)[C@H](O)[C@@H](O)C1SCCCS1` it was > 100 µM. As for `Nc1[nH]c(=S)[nH]c(=O)c1N=Nc1c(Br)cc(S(N)(=O)=O)cc1Br`, the TGI is > 100 µM. Regarding `COc1ccc2cc(CNCCOCCOCCNCc3ccc4cc(OC)ccc4c3)ccc2c1`, the TGI was determined as 2.02 µM. Same read-out and setting: in the case of `CC(C)(C)c1ccc(OCCOc2ccc(C(C)(C)C)cc2NC=O)c(NC=O)c1` it was > 78.7 µM; in that of `CC#CC#C/C=C1/C=CC2(CCCCO2)O1` (centres undefined), > 100 µM. The same measure, in the same setting: to `CCN1CC2(CO)CCC(OC)C34C5CC6C(OC)CC(O)(C5C6OC)C(O)(C(OC)C23)C14` (centres undefined) belongs > 375 µM; to `COc1ccc(NC(=O)CC2SC(=Nc3ccc(Cl)cc3C)NC2=O)c([N+](=O)[O-])c1` (centres undefined), > 100 µM. For the compound `Cn1cc(-c2[nH]c3cc(NC(=O)[C@H](N)C4CCCCC4)cc4c3c2C=NNC4=O)cn1`, the GI50 is 0.229 µM and 0.251 µM; the TGI was 13.1 µM and > 10 µM. For the compound `O=C1/C(=C/Cc2ccco2)N=C(c2ccccc2)N1c1nc2ccc(Sc3ccccc3)cc2[nH]1`, the TGI is > 100 µM. On the same count and under the same terms, to `CC1=NN(c2ccccc2)C(=O)C1N=Nc1ccc(Br)cc1C` (centres undefined) belongs > 100 µM. Same read-out and setting: to `Cn1cnc([N+](=O)[O-])c1Sc1nnc(-c2ccc(Cl)cc2)n1C` belongs > 100 µM.

On to `CC(C)c1cccc(C(C)C)c1NC(=O)/C(Cc1nc2ccc(Cl)cc2[nH]c1=O)=N\NC(=O)C[N+](C)(C)C`, for which the TGI is > 100 µM. The same measure, in the same setting: in the case of `CC(=O)OC1CC[C@@]2(C)C(=CC[C@@H]3[C@@H]2CC[C@]2(C)Nc4c(cnn4-c4ccc(F)cc4)C[C@@H]32)C1` (some centres undefined) it was 97.4 µM; in that of `CCOC(=O)C1=C(C)NC(c2ccccc2)=C(C(=O)OCc2ccccc2)C1C#Cc1ccccc1` (centres undefined), > 100 µM; in that of `CN(C)c1ccc(/C=C(\C#N)C(=O)c2ccccc2)cc1Br`, > 100 µM.

As to `COc1cc([C@@H]2c3cc4c(cc3[C@H](OC3OC5COC(C(C)C)OC5C(O)C3O)C3COC(=O)[C@@H]32)OCO4)cc(OC)c1OC` (some centres undefined), the TGI is 21 µM.

As for `NS(=O)(=O)c1ccc(NC(=O)Nc2cccc3ccccc23)cc1`, the TGI is > 100 µM. As for `COc1cccc(/C=C/C(=O)c2cc3c(N)c(C(=O)Nc4ccccc4)sc3nc2C)c1`, the GI50 was 2.09 µM and the TGI is 9.13 µM. For the compound `Cc1nc(-n2nc(-c3ccccc3)cc2-c2ccccc2)sc1C(/C=C\c1ccc([N+](=O)[O-])cc1)=N/NC(=S)NN`, the TGI is > 89 µM. `O=C1/C(=C/c2ccc(C(=O)O)cc2)CNC/C1=C\c1ccc(C(=O)O)cc1`: the TGI is > 100 µM. Still for that read-out and setting: to `C1=Nc2ccc(cc2)-c2ccc(cc2)N=Cc2ccccc2OCc2cccc(n2)COc2ccccc21` belongs > 100 µM; to `COC(=O)C1=C(C(=O)OC)SC2(S1)C(C(=O)OC)=C(C(=O)OC)Sc1c2ssc1=O`, 24.9 µM; to `O=C(O)Cn1cnc2c(=O)[nH]c(Nc3ccccc3)nc21`, > 100 µM. `Cc1ccc2c(c1)n([O-])c(C(F)(F)F)c(C(=O)c1ccco1)[n+]2=O`: the GI50 is 1.52 µM and the TGI came out at 5 µM.

As to `C#Cc1cccc(NC(=O)C2CCCCN2C(=O)CCl)c1` (centres undefined), the GI50 is > 82.5 µM and the TGI is > 82.5 µM. Regarding `COC(=O)C12CCC(CC1=O)C2(C)C` (centres undefined), the TGI was > 100 µM.

As for `Cc1cc2nc3c(C)c4ccccc4c(C)n3c2cc1C`, the TGI was > 10 µM. With `Cc1c2cc[n+](C)cc2c(C)c2c1[nH]c1ccc(OC(C)(C)C)cc12`, the TGI is > 100 µM. With `Cc1ccc2c(=O)cc(-c3ccccc3)[nH]c2n1`, the TGI was > 40.7 µM. As to `COc1cc(/C=[N+](\[O-])c2ccccc2Cl)ccc1OC(=S)S`, the TGI is > 100 µM. With `OCC1OC(n2cnc3cc(Cl)c(Cl)cc32)C(O)C1O` (centres undefined), the GI50 was 24.1 µM and the TGI is > 90.6 µM. `Nc1ccc(Oc2ccc(C34CC5CC(C3)CC(c3ccc(Oc6ccc(N)c(O)c6)cc3)(C5)C4)cc2)cc1O` displayed a TGI of 2.04 µM. Still for that read-out and setting: to `O=C1C2Cc3ccccc3CN2C(=O)N1CN1CCCCC1` (centres undefined) belongs > 100 µM. On the same count and under the same terms, to `COc1ccc2nc3c(nc2c1)C(C)(C)C=C3c1ccc(Br)cc1` belongs > 100 µM.

As to `CCCCCCCN(CCCCCCC)C(=N)c1ccc(OC)c2ccccc12`, the GI50 is 1.36 µM and the TGI was determined as 2.89 µM.

On to `COc1ccc(C2CC(=O)Nc3c2c(C)nn3-c2nc3ccccc3[nH]2)cc1OC` (centres undefined), for which the GI50 is 7.81 µM and the TGI came out at 57.7 µM. As for `O=C1C2=C(c3ccccc31)C(c1ccc([N+](=O)[O-])cc1)NC(=S)N2` (centres undefined), the TGI is > 100 µM. On to `Cc1cccc(Nc2ncc(-c3ccccc3)o2)c1`, for which the GI50 was > 25 µM and the TGI is > 25 µM. As to `O=S1(=O)OCCOS(=O)(=O)C1C1c2ccccc2-c2ccccc21`, the TGI is > 100 µM. On the same count and under the same terms, in the case of `Cc1ccnc2[nH]c(-c3ccc(Cl)cc3)cc(=O)c12` it was > 100 µM; in that of `Nc1nc(Cl)cc(OCC2(CO)CCCCC2)n1`, > 100 µM; in that of `CC(NC(=O)C(NC(=O)C(NC(=O)C(F)(F)F)C(C)C)C(C)C)C(=O)Oc1c(Cl)c(Cl)c(Cl)c(Cl)c1Cl` (centres undefined), > 100 µM. Still for that read-out and setting: in the case of `C=C1CC2(CC(c3ccccc3C)OC(c3ccccc3C)C2)OC1=O` (centres undefined) it was 28.2 µM.

In the case of `O=C(C#Cc1ccccc1)N1CCCCC1`, the TGI was > 100 µM. As for `C=C1[C@H](O)C[C@@H](C(C)C(O)CC=C(C)C)[C@@H](O)[C@@H]2C(C)=CC[C@@H]12` (some centres undefined), the GI50 is > 100 µM and the TGI is > 100 µM. In the case of `O=C(NNC(=O)c1ccccc1O)c1cccs1`, the TGI is > 100 µM. Consider `O=C(NC12CC3CC(CC(C3)C1)C2)n1cnc2c(Cl)ncnc21`, for which the TGI is > 100 µM. On the same count and under the same terms, to `CCc1cc2c(cc1O)CC[C@@H]1[C@@H]2CC[C@]2(C)[C@@H](O)CC[C@@H]12` belongs 24.8 µM. In the case of `CC(C)C(N=C1CC2CCC1(C(=O)Nc1ccccc1O)C2(C)C)c1ccccc1` (centres undefined), the TGI is > 10 µM. As to `O=[N+]([O-])c1ccc(NC(c2ccccc2)c2ccc3cccnc3c2O)cc1` (centres undefined), the GI50 was 0.466 µM and the TGI was > 100 µM. In the case of `Nc1nc(N)c2c(n1)NC(c1ccc(Cl)cc1)C1CCc3ccccc3C1=N2` (centres undefined), the GI50 is 12.8 µM and the TGI was found to be 26.3 µM. Take `COc1ccccc1-c1nc[nH]c1-c1ccccc1OC`: the TGI is > 100 µM. In the case of `CNC(=O)c1cc(Oc2ccc(NC(=O)Nc3ccc(Cl)c(C(F)(F)F)c3)cc2)ccn1`, the GI50 is 3.99 µM and 3.71 µM and 2.96 µM; the TGI is > 10 µM and 11.1 µM and 9.22 µM.

With `C#CCN1C(=O)CN2C(Cl)(Cl)C2(c2ccccc2)c2cc(Cl)ccc21` (centres undefined), the TGI is > 100 µM.

`Oc1ccc(Cl)cc1N=Nc1c(O)ccc2ccccc12`: the TGI was > 100 µM. Turning to `Fc1ccc(Nc2ccnc(N3CCN(c4ccnc5cc(Cl)ccc45)CC3)n2)cc1`, the GI50 was 3.21 µM and the TGI is 52.5 µM. For the compound `COc1ccc(CC2OC3(CCCCC3)CC3CCCCN32)cc1` (centres undefined), the TGI is > 100 µM. Still for that read-out and setting: in the case of `O=S(=O)(O)c1ccc([Se][Se]c2ccc(S(=O)(=O)O)cc2)cc1` it was > 100 µM; in that of `Cc1nc2cc3[nH]c4ccccc4c(=O)c3cc2s1`, > 100 µM.

On to `COc1cc(N2CCN(C(C)C)CC2)ccc1Nc1nc(Nc2ccc(F)cc2C(N)=O)c2cc[nH]c2n1`, for which the GI50 is 0.108 µM and the TGI turned out to be 4.28 µM. In the same order, the values of `CCCN1CCN(c2ccc3nc(-c4ccc5nc(-c6ccc(OCC)cc6)[nH]c5c4)[nH]c3c2)CC1` are 1.64 µM and 3.06 µM. Compound `Clc1ccc(CCNCCNC2(c3cc4ccccc4s3)CCCCC2)cc1Cl` returned a TGI of 3.84 µM. On the same count and under the same terms, in the case of `CCOC(=O)/C(C(N)=O)=C(/O)c1cnccn1` it was > 100 µM. Same read-out and setting: to `COc1ccc(/C=C2\CCC(C)(CN(C)C)C2=O)cc1Br` (centres undefined) belongs 97.6 µM.

With `N/C(=N/O)NOCCC(N)C(=O)O` (centres undefined), the GI50 is > 100 µM and the TGI was > 100 µM. Take `O=C(O)[C@@H](Cc1ccccc1)NS(=O)(=O)c1ccc(-c2ccccc2)cc1`: the GI50 is > 100 µM and the TGI is > 100 µM. Regarding `c1ccc(C2SCc3nc4ccccc4n32)cc1` (centres undefined), the TGI was > 100 µM.

As for `Nc1nc2c(nnn2C2C=C(CO)C(O)C2O)c(=O)[nH]1` (centres undefined), the TGI was > 100 µM. Same read-out and setting: to `O=S1(=O)CC#CC[C@@H](CO)[C@@H](CO)CC#CC1` belongs > 100 µM; to `OCC1OC(N2CCN(C3OC(CO)C(O)C(O)C3O)CC2)C(O)C(O)C1O` (centres undefined), > 100 µM. Take `COc1ccc(N2CCN(c3nc(-c4ccccn4)nc4sc5c(c34)CCCCCC5)CC2)cc1`: the GI50 was 5.55 µM and the TGI was > 100 µM.

On to `O=S1c2ccccc2N=C(c2cccs2)CC1c1ccccc1O` (centres undefined), for which the TGI is > 100 µM. On the same count and under the same terms, to `CCCCCCCCCCCCCC(=O)OCC1OC(=O)C(O)C1O` (centres undefined) belongs > 100 µM; to `CCOC(=O)C(NS(=O)(=O)c1ccccc1)(C(F)(F)F)P(=O)(OCC(C)C)OCC(C)C` (centres undefined), > 100 µM.

Turning to `CN(C)CC(O)CNC(=O)Nc1ccccc1` (centres undefined), the TGI is > 100 µM. In the case of `Cc1ccc(O)c(C(=O)/C=C/c2ccccc2)c1`, the TGI was > 100 µM. Still for that read-out and setting: to `CC(C)(C)c1cc([Si](C)(C)C)c(C#N)c([Si](C)(C)C)c1` belongs > 100 µM. On to `CCc1c[n+]2c(cc1C1=CN3c4ccccc4[C@]45CCN6C/C(=C/CO)[C@H](C[C@H]64)[C@@H]([C@@H]1O)[C@H]35)-c1[nH]c3ccccc3c1CC2`, for which the TGI is > 50 µM. In the case of `c1ccc(OCC[P+](c2ccccc2)(c2ccccc2)c2ccccc2)cc1`, the GI50 was 3.95 µM and the TGI was found to be 24.5 µM. Taken in the same sequence, the figures for `COc1cc(/C=C/[N+](=O)[O-])cc(OC)c1` were 11 µM and 24.4 µM.
